# Assay results reported in the supplement of paper PMC11417369.
# The other results are listed elsewhere or left out.
# Tested on: PfAP2-HC AP2 domain (GST-tagged)
# Assay: gcPBM binding intensity (ln(normalized median fluorescence intensity)); higher = stronger DNA binding
# Summary of the method: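 Plasmodium falciparum DNA-binding domains carrying a GST tag were expressed in E. coli and applied for 1 h, at about 25 μg on average, to an Agilent 4 × 180k array. The array held primer-extended double-stranded 36-bp intergenic genomic probes together with negative controls, and binding took place in 1× PBS with 1% milk, 0.2 mg/ml BSA, 0.5% salmon testes DNA and 0.03% Triton X-100. An Alexa488 anti-GST antibody detected bound protein, and the array was scanned at 488 nm. Binding intensity is taken as the highest Masliner-normalised natural-log median intensity across replicate spots of either probe orientation.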
row,Sequence,gcPBM binding intensity (ln)
1,ATTTGAAAAAATACTACACACCATATTGTTAATTTT [CACACA_site3829],9.81
2,AAGATTCATATAAAAAGTACAAAAAGAAAAAAATAA [XGTACX_site6033],9.6
3,ATTAAATCATATGAATGTACGGATATATATATTTCC [XGTACX_site8650],9.57
4,TGATAAATTTTCACATGTACATATATAGAATAACCT [XGTACX_site2860],9.58
5,TCTAAAAAAATTATATCACACATTATAAAGCATATT [CACACA_site4885],9.43
6,TAATAAGTATCAAAATGTACATGACAAAAATAATTT [XGTACX_site8961],9.82
7,TATACACATAGACACACACACATACACGCACATACA [CACACA_site6908],10.7
8,ATAATATATGCAAAAACATGCACATAATATGTAAAA [TGCATGCA_site742],9.83
9,ATAATTTTATATAAATGTACATACATTTTTATTATA [XGTACX_site7368],9.64
10,ATATATATGTATATATGTACATATATGTATATATAT [XGTACX_site4772],9.95
11,ATTTGTATATAATATATATAATTTTTTTTTTTTGTT [XGTACX_negctrl_site425],9.42
12,ATAACTATATACATCTGTACATAATACATAGATAAA [XGTACX_site2795],9.61
13,ATATCTTCACTTATATGTACTTACATTTTTTTTTTT [XGTACX_site8696],9.85
14,ATACATACATATGTATGTACGTATGTATGTATGTAT [XGTACX_site3853],9.85
15,CAAATAAAAAAAGTAGCACACATGAATAAAATATAT [CACACA_site3130],10
16,TTATAAAAAGAACAATTAAAAAAAAATAAAATAAAA [XGTACX_negctrl_site398],9.38
17,AGAATAGTGGAAAACACACACGTTTGAGATATGGAC [CACACA_site4782],10
18,CACCCACCCACATACACACACATACACATATATATA [CACACA_site1722],10.3
19,TTTTTATGTTCTATATATATATATATATATATATAT [GTGCAC_negctrl_site306],9.9
20,GCACGTGTGATTAGATGTACATAACATGTATATGTC [XGTACX_site4632],9.67
21,CATAATATATATTGAGCATGCTACTATTGTTAGAAA [TGCATGCA_site740],9.81
22,ACATATAAGATATATACACACATATAAATACATTAA [CACACA_site7763],10
23,AAAAAAAAAAACTACACACATACAAATATTTATATA [CACACA_site2574],9.91
24,AAGAAAATAAATAATACACACAAGGATTTGTAAATA [CACACA_site690],10
